From the supplement of paper PMC4967469
pIC50: −log10 of the molar value. By IC50 is meant the dose at which the fit gives 50% viability; a limit (>, <) means that the fit lies beyond the doses tested. AUC is the area under the same curve over the 256-fold range up to the top dose, as a fraction; values near 1 show little effect. For part of these data: An inferred top dose comes from the curve model; the source does not state it. For part of these data: Drugs with an entry number were screened twice under separate entries, and the two screens often disagree.

Assays:
Assay in all cases: Viability of human cancer cell lines after 72 h of drug (GDSC screen)
[1] = compound: Cc1cnc(-c2cnc(NCCNc3ccc(C#N)cn3)nc2-c2ccc(Cl)cc2Cl)[nH]1 [CHIR-99021]
Procedure: (§1)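 Human cancer cell lines in 384-well plates, medium with 10% serum, drug for 72 h over a 256-fold dose range (nine 2-fold or five 4-fold steps up to the top dose). Adherent lines were fixed and stained with the nucleic acid dye Syto60, suspension lines read with resazurin; signal relative to control wells, capped at 0 and 100%. One two-parameter sigmoid per drug and line, fitted in a mixed model over all curves with the slope shared within a line.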

[2] = compound: COc1cc(O)c2c(c1)/C=C/C[C@H](O)[C@H](O)C(=O)/C=C\C[C@H](C)OC2=O [(5Z)-7-Oxozeaenol]; conditions: top dose 10 µM; top dose inferred
Procedure: as §1

[3] = compound: O=c1cc(-c2cccc3c2Sc2ccccc2S3)oc(N2CCOCC2)c1 [KU-55933]; conditions: top dose 10 µM
Procedure: as §1

[4] = compound: COc1cc2ncnc(-n3nc(-c4ccccn4)nc3N)c2cc1OC [CP466722]; conditions: top dose 16 µM; top dose inferred
Procedure: as §1

[5] = compound: C[C@]1(c2nc3c(C(N)=O)cccc3[nH]2)CCCN1 [ABT-888]; conditions: top dose 5 µM; top dose inferred
Procedure: as §1

[6] = compound: COc1cc(N2CCC(O)CC2)ccc1Nc1cc(Nc2ccccc2S(=O)(=O)C(C)C)c2cc[nH]c2n1 [MPS-1-IN-1]; conditions: top dose 20 µM; top dose inferred
Procedure: as §1

[7] = compound: Nc1ccn([C@@H]2O[C@H](CO)[C@@H](O)[C@@H]2O)c(=O)n1 [Cytarabine]; conditions: top dose 2 µM
Procedure: as §1

[8] = compound: Cc1ccc(F)c(NC(=O)Nc2ccc(-c3cccc4[nH]nc(N)c34)cc2)c1 [ABT-869]; conditions: top dose 1.024 µM; top dose inferred
Procedure: as §1

[9] = compound: C=CC(=O)Nc1cc(-n2c(=O)ccc3cnc4ccc(-c5cn[nH]c5)cc4c32)ccc1C [QL-X-138]; conditions: top dose 10.24 µM; top dose inferred
Procedure: as §1

[10] = compound: C/C=C(/C)C(=O)O[C@H]1C(C)=C2[C@H]([C@@H]1OC(=O)CCCCCCC)[C@@](C)(OC(C)=O)C[C@H](OC(=O)CCC)[C@@]1(O)[C@H]2OC(=O)[C@@]1(C)O [Thapsigargin]; conditions: top dose 0.512 µM; top dose inferred
Procedure: as §1

[11] = compound: CCn1c(-c2nonc2N)nc2cnc(Oc3cccc(NC(=O)c4ccc(OCCN5CCOCC5)cc4)c3)cc21 [GSK269962A]; conditions: top dose inferred
Procedure: as §1

[12] = compound: COc1nc(C)cnc1NS(=O)(=O)c1cccnc1-c1ccc(-c2nnco2)cc1 [Zibotentan]; conditions: top dose 20 µM; top dose inferred
Procedure: as §1

[13] = compound: Cc1ccc(-c2c(C(=O)CCl)n(CCCO)c3ncnc(N)c23)cc1 [CMK]; conditions: top dose 4 µM; top dose inferred
Procedure: as §1

[14] = top dose 2.56 µM, screen: GDSC drug entry 154
[15] = top dose 10 µM, screen: GDSC drug entry 1241, top dose inferred
[16] = top dose 2.5 µM, screen: GDSC drug entry 127
[17] = top dose 5 µM, screen: GDSC drug entry 1192

Row | Cell Line | AUC [1, 14] | pIC50 [1, 14] | AUC [1, 15] | pIC50 [1, 15] | AUC [2] | pIC50 [2] | AUC [3] | pIC50 [3] | AUC [4] | pIC50 [4] | AUC [5] | pIC50 [5] | AUC [6] | pIC50 [6] | AUC [7] | pIC50 [7] | AUC [8] | pIC50 [8] | AUC [9] | pIC50 [9] | AUC [10] | pIC50 [10] | AUC [11, 16] | pIC50 [11, 16] | AUC [11, 17] | pIC50 [11, 17] | AUC [12] | pIC50 [12] | AUC [13] | pIC50 [13]
1 | MHH-PREB-1 (B-cell leukaemia, suspension) | 0.985 | < 5.59 | 0.915 | < 5.00 | 0.647 | 5.82 | 0.88 | 5.07 | 0.779 | 5.24 | 0.987 | < 5.30 | 0.81 | 5.04 | 0.53 | 6.82 | 0.989 | < 5.99 | 0.503 | 6.19 | 0.36 | 7.86 | 0.941 | < 5.60 | 0.769 | 5.77 | 0.988 | < 4.70 | 0.792 | 5.80
2 | MLMA (hairy cell leukaemia, semi-adherent) | 0.985 | < 5.59 | 0.959 | < 5.00 | 0.483 | 6.25 | 0.871 | 5.02 | 0.686 | 5.48 | 0.966 | < 5.30 | 0.879 | < 4.70 | 0.399 | 7.18 | 0.986 | < 5.99 | 0.448 | 6.34 | 0.558 | 7.34 | 0.961 | < 5.60 | 0.951 | < 5.30 | 0.973 | < 4.70 | 0.839 | 5.56
3 | MMAC-SF (melanoma, adherent) | 0.985 | < 5.59 | 0.938 | < 5.00 | 0.124 | > 7.41 | 0.942 | < 5.00 | 0.878 | < 4.80 | 0.978 | < 5.30 | 0.981 | < 4.70 | 0.935 | < 5.70 | 0.987 | < 5.99 | 0.788 | 5.33 | 0.407 | 7.75 | 0.967 | < 5.60 | 0.942 | < 5.30 | 0.987 | < 4.70 | 0.822 | 5.61
4 | MN-60 (B-cell leukaemia, suspension) | 0.987 | < 5.59 | 0.973 | < 5.00 | 0.738 | 5.51 | 0.985 | < 5.00 | 0.78 | 5.16 | 0.984 | < 5.30 | 0.965 | < 4.70 | 0.961 | < 5.70 | 0.979 | < 5.99 | 0.522 | 6.13 | 0.615 | 7.17 | 0.984 | < 5.60 | 0.91 | < 5.30 | 0.988 | < 4.70 | 0.967 | < 5.40
5 | MOLP-8 (myeloma, suspension) | 0.986 | < 5.59 | 0.972 | < 5.00 | 0.517 | 6.16 | 0.965 | < 5.00 | 0.663 | 5.56 | 0.983 | < 5.30 | 0.669 | 5.44 | 0.868 | 5.77 | 0.987 | < 5.99 | 0.284 | 6.79 | 0.213 | 8.32 | 0.945 | < 5.60 | 0.724 | 5.88 | 0.967 | < 4.70 | 0.754 | 5.89
6 | MOLT-4 (lymphoblastic leukaemia, suspension) | 0.99 | < 5.59 | 0.975 | < 5.00 | 0.54 | 6.10 | 0.916 | < 5.00 | 0.59 | 5.77 | 0.974 | < 5.30 | 0.814 | 5.07 | 0.357 | 7.26 | 0.982 | < 5.99 | 0.727 | 5.61 | 0.557 | 7.35 | 0.974 | < 5.60 | 0.769 | 5.81 | 0.991 | < 4.70 | 0.983 | < 5.40
7 | MONO-MAC-6 (acute myeloid leukaemia, suspension) | 0.98 | < 5.59 | 0.981 | < 5.00 | 0.165 | 7.26 | 0.888 | < 5.00 | 0.464 | 6.10 | 0.982 | < 5.30 | 0.817 | 4.92 | 0.816 | 5.92 | 0.313 | 7.73 | 0.733 | 5.51 | 0.19 | 8.45 | 0.975 | < 5.60 | 0.816 | 5.53 | 0.975 | < 4.70 | 0.882 | < 5.40
8 | MPP-89 (mesothelioma, adherent) | 0.957 | < 5.59 | 0.916 | < 5.00 | 0.684 | 5.62 | 0.958 | < 5.00 | 0.89 | < 4.80 | 0.981 | < 5.30 | 0.927 | < 4.70 | 0.769 | 6.01 | 0.981 | < 5.99 | 0.848 | < 4.99 | 0.358 | 7.94 | 0.735 | 6.04 | 0.769 | 5.61 | 0.971 | < 4.70 | 0.955 | < 5.40
